Among the data in the RNAGym collection of RNA variant scans (doi:10.7554/elife.90254) are self-cleavage values, retold here.

First the molecules themselves.
B1: LINE1-mini (parent)
chain: GGCAGAGCUCAACACAGCGUGGCAAAGUGGCUGUGGCUAGACUGCC

The source gives no read counts; variants with many changes may rest on few reads.

In this data set the parent is B1. The experiment in a line: self-cleavage, relative activity (ratio to wild type); higher = more cleavage; in vitro, sequencing; the parent is a self-cleaving ribozyme.
Take GGCAUAGCUCAACACAGCGUGGCACAGUGGCUGUGGCUAGACUGCG: the self-cleavage worked out at 0.05. GGCAUAGAUCAACACAGCGUGGCAAAGUGGCUAUGGCUAGACUGCC: the self-cleavage is 0.24.

GGCAUAGCUCAACCCAGGGUGGCAAAGUGGCUGUGGCUAGACUGCC: the self-cleavage was determined as 0.01. Then GGCAUAGCUAAACAAAGCGUGGCACAGUAGCUGUGGCUAGAGUGCC, with 0.01; and GGCAUAGCUCCACACAGCGAGGCACAGUGGUUGUGGCUUGACUGCC, with 0. For the variant GGCAUAGCUCAGAACAGCGUGGCAAAGUGGCUGUGCCUAGACUGCC, the self-cleavage came out at 0. With GGCAUAGCUAAAGACAGCGUGGCAAAGUGGCUGUGGCUAGACUGCC, the self-cleavage is 0.03. GGCAUAGCUCAGCACAAAUUGGCUAAGUGGCUAUGGCUAGACUGAC: the self-cleavage was determined as 0. In the case of GGCAUAGCUCAUCACAGCGUGGCAAAGUUGCUAUGGCUAGACUGCC, the self-cleavage was 0.08. The value for GGCAUAGCUCAUCACAGCGUGGCAAAGGGGCUGUCGCUAGACUGCC was 0.03; that for GGCAUAGCUCAACACAGCGUGGCAAGGUGGCUGUGGCUAGACCGCC was 0.06.

With GGCAUAGCUCGACACAGCGUGGCAAAGUGGUUGUGGCUAGACUGAC, the self-cleavage was determined as 0. The value for GGCAUAGCUCAACACUGGGUGGCAAAGUGGCUGUGGCUAGACUGCC was 0.13; that for GGCAUAGAUCAACACAGCGCGGCAAAGUGGCUGUGGCCAGACUGCC was 0.23.

With GGCAUAGCUCGACACAGCGCGGCAAAGUGGCUGAGGCUAGACUGCC, the self-cleavage amounted to 0.02. Then GGCAUAGAUCAACACAGCGUGGCAAAGUGGCUGUGGCUAGAAUGUC, with 0.23; and GGCAUAGGUCGACACAGCGUGGCAAAGUGGCUGUGGCUAGACUACC, with 0.04. The value for GGCAUAGCUCAACACCGCGUGGCAAAGGGGCUGUGGCUAGACUUAC was 0.02; that for GGCAUUCCUCAACACAGCGAGGCAAAGUGGCUGUGGCUCGACUGCC was 0.02; that for GGCACAGCUCAACACAGCGCUGCAAAGAGGCUGUGUCUAGACUGCU was 0.02. Take GGCACAGCUCAACACAGCGUGGCAAAGUGGCUGAGGCUAGAAUGCC: the self-cleavage was 0.01. For the variant GGCAUAGCUCAGCAAAGCGUGGCAAUGUGCCUGUGUCUGGACGGCC, the self-cleavage stood at 0.02.

As for GGCAUAGCUCGACACAGCGUCUCAAAGUGGCUGUGGCUAGACUGCC, the self-cleavage is 0. Then GGCAUAGUUCAACACAGCGUGGCAAAGUGGCUGUGGCUAGUCUGCC, with 0.21; and GGCAUAGCUAAACGCAGCGUGGAGAUGUGGCUGUGGCUAGACUGCC, with 0.02. Then GGCAUAGCUCAACGCAGCGUAGCAAAGUGGCUGUGGCUAGAAUGCC, with 0.15.

For the variant GGCAUUGCGCAACACAUCGUGGCAAAGUGGCUGUGGCUAGACUGCC, the self-cleavage was determined as 0.02. Then GGCAUAGCUCGACACAGCGUGGCAAAGUGGCUAUGGUUAGACUGCC, with 0.03; and GGCAUAGCUCAACACAGCGUGGCAGAGUGGCCGUGGCUAGACUGCC, with 0.04; and GGCAUAGCUCGACACAGCGAGGCAUAGUGGCUGUGGCUAGACUGCC, with 0.02. The value for GGCACAGCUCAACACAGCGCGGCAAAGAGGCUGUGGCUAGACUGUA was 0.04; that for GGCACAGCUCAACACAGCGAGGCAAAGUGGCUGUGGCUAAACUGCC was 0.14; that for GGCAUAGCUCAUCACAGCGAGGCAAAGUGGCUGUGGCUAGACUGCC was 0.03. In the case of GGCAUAGUACAGCACAGUGUGGCAAAGUGGCUGUGGCUAGACUGCC, the self-cleavage amounted to 0.15. The value for GGCAUAGCUCAACGCAUCGUGGCAAAGUGCCUGUGGCUAGACUGCC was 0.11; that for GGCAUAGUUCAACACAGCGUGGCCAAGUGGCUGUGGCUACACUGCC was 0.05; that for GGCAUCGCUCAACACAGCAUGGCAAAGUGGCUGUGGCUAGACUCCC was 0.11.

As to GGCAUAGCUCAACACUGCGUGGCAAUGUGGCAGUGCCUAGACUGUC, the self-cleavage was 0.01.

As to GGCAUAGGUCAACACAGCGUGGCAAAGUGGCUGAGGCUAGACUGCA, the self-cleavage stood at 0.16.

For the variant GGCAUAGCUCCACACAGCGUCGCAAAGUGGCUGUGGUUAGACUGCC, the self-cleavage came out at 0.01.

Take GGCAUAGCUCACCACAGCGUGGCAAAGUGGCUGUUGCUAGACUGCC: the self-cleavage was found to be 0.01. As to GGCAUAGCUCAACACAGCGUGGCCAACUGGCUGUGGCUAGACUGCC, the self-cleavage was found to be 0.02. Then GGCACAGCUCAACACAGCGCGGCAAAGUGGCUGUGGCUAGACUGCG, with 0.04; and GGCACAGCGCAAUACAGCGUGUCAAAGUGGCUGUGGCUAGACUGCC, with 0.05; and GGCAUAGGUAAAAACAGCGUGGCGUAGUGGCUGUGGCUAGACUGCC, with 0. Then GGCAUAGCUCCACACAGCGUAGCAAAGCGGCUGUGGCUAGACUGCC, with 0.01.

As to GGCAUAGCUCAACACUGCGUGGCAAUGGGGCUGUGGCUAGACUGCC, the self-cleavage came out at 0.02.

With GGCAUAGCUCAACACUGCGUGGAAAAGUGGCUGUGGCUAAUCUGCC, the self-cleavage was found to be 0.02. Take GGCACAGCUCAACACAGCGCGGCAAAGUUGCUGUGGCUAGACUGGC: the self-cleavage stood at 0.02. The value for GGCAUAGCUCAACUCAGCGUGGCAAAGUGGCUGUGGCUAUACUGCC was 0.01; that for GGCAUAGCUCAGCACAGCGUUGCAAAAUGGCUGUGGCUAGACUGCC was 0. The value for GGCAUCGCUCAACACAGCGUGGCAAAGGGGUUGCGGUUAGACCGCC was 0.01; that for GGCAUAGCUCGACACAGCGUGGCUAAGUCGCUGUGGCUAGACGGCC was 0.01. As to GGCAUAGCUCAGCACAGCGUGGCAAAGUGGCUGUGGCCAGACAGCC, the self-cleavage is 0.02. GGCAUAGCUCAACACAGCGUGGCAAAGUGGCUGUGGCUUGACUGCU: the self-cleavage stood at 0.06. Regarding GGCAUAGCUCGACCCGGCGUGGCAAAGUGGCUGUGGCUAGACUGCC, the self-cleavage came out at 0.
